Assay results from article PMC12820563.
This is one part of the list. The list includes weakly bound sequences.

target: T1, MBP-FoxP3dN (UniProt Q99JB6); assay: PD-seq (MBP pull-down with sequencing); conditions: 20 mM Tris-HCl pH 7.5, 100 mM NaCl, 1.5 mM MgCl2, 0.4 uM protein, 0.1 uM dsDNA library, 30 min, room temperature, amylose pull-down; high values mean tight binding; double strand, one strand shown
T1 sequence: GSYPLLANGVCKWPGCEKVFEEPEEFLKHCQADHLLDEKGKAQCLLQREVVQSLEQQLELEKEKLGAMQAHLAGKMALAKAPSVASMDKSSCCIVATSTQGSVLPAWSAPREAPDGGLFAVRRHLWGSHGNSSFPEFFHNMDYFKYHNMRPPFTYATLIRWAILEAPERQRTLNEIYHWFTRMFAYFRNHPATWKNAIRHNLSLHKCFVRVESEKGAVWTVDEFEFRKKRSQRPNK

| Sequence | binding signal (RPM ratio (pull-down/input)) |
| --- | --- |
| GATGATTGTTCTCCCAGCTGATGAATTCGGACACTCGAGTAAACAAATTTTCCTAATCTTTCTGTTCAAGCGCCATCTAC | 1.25 |
| GATGATTGTTCTCCCAGCTGATGAATTGTTTCCTTCGAGTAAACAAATTTTCCTAATCTTTCTGTTCAAGCGCCATCTAC | 1.52 |
| GATGATTGTTCTCCCAGCTGATGAATTCTTCAAATCGAGTAAACAAATTTTCCTAATCTTTCTGTTCAAGCGCCATCTAC | 0.265 |
| GATGATTGTTCTCCCAGCTGATGAATTACGACTCTCGAGTAAACAAATTTTCCTAATCTTTCTGTTCAAGCGCCATCTAC | 1.93 |
| GATGATTGTTCTCCCAGCTGATGAATTGGGAATTTCGAGTAAACAAATTTTCCTAATCTTTCTGTTCAAGCGCCATCTAC | 1.3 |
| GATGATTGTTCTCCCAGCTGATGAATTCAGACTTTCGAGTAAACAAATTTTCCTAATCTTTCTGTTCAAGCGCCATCTAC | 0.914 |
| GATGATTGTTCTCCCAGCTGATGAATTCTTAGATTCGAGTAAACAAATTTTCCTAATCTTTCTGTTCAAGCGCCATCTAC | 0.257 |
| GATGATTGTTCTCCCAGCTGATGAATTTGCCCGCTCGAGTAAACAAATTTTCCTAATCTTTCTGTTCAAGCGCCATCTAC | 0.355 |
| GATGATTGTTCTCCCAGCTGATGAATTGATCAAATCGAGTAAACAAATTTTCCTAATCTTTCTGTTCAAGCGCCATCTAC | 0.304 |
| GATGATTGTTCTCCCAGCTGATGAATTGGGAAAGTCGAGTAAACAAATTTTCCTAATCTTTCTGTTCAAGCGCCATCTAC | 0.221 |
| GATGATTGTTCTCCCAGCTGATGAATTGTTAGATTCGAGTAAACAAATTTTCCTAATCTTTCTGTTCAAGCGCCATCTAC | 0.635 |
| GATGATTGTTCTCCCAGCTGATGAATTTAGTAAATCGAGTAAACAAATTTTCCTAATCTTTCTGTTCAAGCGCCATCTAC | 0.439 |
| GATGATTGTTCTCCCAGCTGATGAATTTGAACAATCGAGTAAACAAATTTTCCTAATCTTTCTGTTCAAGCGCCATCTAC | 0.363 |
| GATGATTGTTCTCCCAGCTGATGAATTGAGCGAATCGAGTAAACAAATTTTCCTAATCTTTCTGTTCAAGCGCCATCTAC | 0.249 |
| GATGATTGTTCTCCCAGCTGATGAATTAAATGGATCGAGTAAACAAATTTTCCTAATCTTTCTGTTCAAGCGCCATCTAC | 0.314 |
| GATGATTGTTCTCCCAGCTGATGAATTGAATTATTCGAGTAAACAAATTTTCCTAATCTTTCTGTTCAAGCGCCATCTAC | 1.34 |
| GATGATTGTTCTCCCAGCTGATGAATTGGTAGCATCGAGTAAACAAATTTTCCTAATCTTTCTGTTCAAGCGCCATCTAC | 1.39 |
| GATGATTGTTCTCCCAGCTGATGAATTAGACCATTCGAGTAAACAAATTTTCCTAATCTTTCTGTTCAAGCGCCATCTAC | 0.44 |
| GATGATTGTTCTCCCAGCTGATGAATTACTTCCCTCGAGTAAACAAATTTTCCTAATCTTTCTGTTCAAGCGCCATCTAC | 0.245 |
| GATGATTGTTCTCCCAGCTGATGAATTTGCTAACTCGAGTAAACAAATTTTCCTAATCTTTCTGTTCAAGCGCCATCTAC | 0.744 |

| Sequence | binding signal (RPM ratio (pull-down/input)) |
| --- | --- |
| GATGATTGTTCTCCCAGCTGATGAATTGCCCTATTCGAGTAAACAAATTTTCCTAATCTTTCTGTTCAAGCGCCATCTAC | 0.508 |
| GATGATTGTTCTCCCAGCTGATGAATTGGTCCCCTCGAGTAAACAAATTTTCCTAATCTTTCTGTTCAAGCGCCATCTAC | 0.358 |
| GATGATTGTTCTCCCAGCTGATGAATTTTATTGTTCGAGTAAACAAATTTTCCTAATCTTTCTGTTCAAGCGCCATCTAC | 6.02 |
| GATGATTGTTCTCCCAGCTGATGAATTGCCGCCCTCGAGTAAACAAATTTTCCTAATCTTTCTGTTCAAGCGCCATCTAC | 0.868 |
| GATGATTGTTCTCCCAGCTGATGAATTGACGTACTCGAGTAAACAAATTTTCCTAATCTTTCTGTTCAAGCGCCATCTAC | 0.483 |
| GATGATTGTTCTCCCAGCTGATGAATTTTATTTCTCGAGTAAACAAATTTTCCTAATCTTTCTGTTCAAGCGCCATCTAC | 1.53 |
| GATGATTGTTCTCCCAGCTGATGAATTTAAGCCGTCGAGTAAACAAATTTTCCTAATCTTTCTGTTCAAGCGCCATCTAC | 0.4 |
| GATGATTGTTCTCCCAGCTGATGAATTTGCGTAATCGAGTAAACAAATTTTCCTAATCTTTCTGTTCAAGCGCCATCTAC | 1.8 |
| GATGATTGTTCTCCCAGCTGATGAATTAGCACGATCGAGTAAACAAATTTTCCTAATCTTTCTGTTCAAGCGCCATCTAC | 0.311 |
| GATGATTGTTCTCCCAGCTGATGAATTGCAGTTTTCGAGTAAACAAATTTTCCTAATCTTTCTGTTCAAGCGCCATCTAC | 1.18 |
| GATGATTGTTCTCCCAGCTGATGAATTATACGTCTCGAGTAAACAAATTTTCCTAATCTTTCTGTTCAAGCGCCATCTAC | 0.608 |
| GATGATTGTTCTCCCAGCTGATGAATTTCTTAATTCGAGTAAACAAATTTTCCTAATCTTTCTGTTCAAGCGCCATCTAC | 0.276 |
| GATGATTGTTCTCCCAGCTGATGAATTGGATAACTCGAGTAAACAAATTTTCCTAATCTTTCTGTTCAAGCGCCATCTAC | 0.323 |
| GATGATTGTTCTCCCAGCTGATGAATTTGGGCTATCGAGTAAACAAATTTTCCTAATCTTTCTGTTCAAGCGCCATCTAC | 0.725 |
| GATGATTGTTCTCCCAGCTGATGAATTACTTCTTTCGAGTAAACAAATTTTCCTAATCTTTCTGTTCAAGCGCCATCTAC | 0.268 |
| GATGATTGTTCTCCCAGCTGATGAATTTGACTGTTCGAGTAAACAAATTTTCCTAATCTTTCTGTTCAAGCGCCATCTAC | 0.85 |
| GATGATTGTTCTCCCAGCTGATGAATTCTCCATGTCGAGTAAACAAATTTTCCTAATCTTTCTGTTCAAGCGCCATCTAC | 0.249 |
| GATGATTGTTCTCCCAGCTGATGAATTGACTTCATCGAGTAAACAAATTTTCCTAATCTTTCTGTTCAAGCGCCATCTAC | 0.378 |
| GATGATTGTTCTCCCAGCTGATGAATTCCTTAGTTCGAGTAAACAAATTTTCCTAATCTTTCTGTTCAAGCGCCATCTAC | 0.275 |
| GATGATTGTTCTCCCAGCTGATGAATTCCCGATGTCGAGTAAACAAATTTTCCTAATCTTTCTGTTCAAGCGCCATCTAC | 0.297 |
